# Source: the supplement of paper PMC9446081
# The whole screen tested about 39,000 compounds, of which about 220 (0.56%) showed activity. The list shows a part of the results.
# Tested on: Escherichia coli K-12 BW25113
# Assay: relative growth (OD600 normalised to plate interquartile mean) (fraction); higher = less growth inhibition, active = 0.2 or less
# Conditions: 50 µM; LB; incubation time: overnight (16-24 h)
# 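Further: static incubation at 37 °C against the wild-type strain, values averaged over two biological replicates.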
row,SMILES,relative growth
1,C[C@@H]1CN([C@H](C)CO)C(=O)CCCn2nncc2CO[C@@H]1CN(C)S(=O)(=O)c1ccc(-c2ccccc2)cc1,inactive: 1
2,Cc1noc(C)c1NC(=O)Nc1ccc2c(c1)C(=O)N([C@@H](C)CO)C[C@@H](C)[C@H](CN(C)C(=O)Nc1c(C)noc1C)OCCCC[C@@H](C)O2,inactive: 0.958
3,C[C@@H]1O[C@@H](O[C@@H]2[C@@H](O)[C@@H](O[C@@H]3O[C@@H](CO)[C@H](O)[C@H]3O)[C@H](OC(=O)[C@]34CCC(C)(C)C[C@H]3C3=CC[C@H]5[C@@]6(C)C[C@H](O)[C@H](O[C@@H]7O[C@@H](C)[C@H](O)[C@@H](O[C@@H]8OC[C@@H](O)[C@H](O)[C@H]8O[C@@H]8O[C@H](CO)[C@@H](O)[C@H](O)[C@H]8O)[C@H]7O)[C@@](C)(CO)[C@@H]6CC[C@@]5(C)[C@]3(C)C[C@H]4O)O[C@H]2C)[C@H](O)[C@H](O)[C@H]1O,inactive: 1.01
4,Cc1noc(C)c1NC(=O)Nc1ccc2c(c1)CC(=O)N([C@@H](C)CO)C[C@@H](C)[C@H](CN(C)C(=O)Nc1ccc(C(F)(F)F)cc1)O2,inactive: 0.986
5,C[C@@H]1CN([C@@H](C)CO)C(=O)Cc2cc(NS(=O)(=O)c3ccc(F)cc3)ccc2O[C@H]1CN(C)S(=O)(=O)c1ccc(F)cc1,inactive: 0.993
6,C[C@H](CO)N1C[C@H](C)[C@H](CN(C)CC2CCOCC2)Oc2ncc(C#Cc3ccc(F)cc3)cc2C1=O,inactive: 0.995
7,O=C(/C=C/c1ccc(O)c(O)c1)O[C@@H]1O[C@H](CO)[C@@H](O)[C@H](O)[C@H]1O,inactive: 1.01
8,COc1ccc2c3c(n(c2c1)C)[C@@H](CO)N(C[C@]13CN(C1)C(=O)c1ccccn1)S(=O)(=O)c1ccc(cc1)C,inactive: 1.03
9,CCCC(=O)Nc1ccc2c(c1)OC[C@@H](C)N(Cc1ccc(-c3ccccn3)cc1)C[C@@H](C)[C@@H](OC)CN(C)C2=O,inactive: 1
10,COc1ccc(NC(=O)N(C)C[C@@H]2OCCCC[C@@H](C)Oc3ccc(NS(=O)(=O)c4ccc(F)cc4)cc3C(=O)N([C@H](C)CO)C[C@@H]2C)cc1,inactive: 0.979
11,CCS(=O)(=O)N1C[C@]2(C1)CN([C@@H](CO)c1c2c2ccc(cc2n1C)OC)C(=O)Nc1cccc(c1)F,inactive: 1.01
12,Cn1cnc(S(=O)(=O)N[C@H]2CC[C@H](CC(=O)Nc3ccccc3)O[C@H]2CO)c1,inactive: 1
13,CC(C)NC(=O)N(C)C[C@@H]1Oc2ccc(NC(=O)Cc3ccccc3)cc2CC(=O)N([C@H](C)CO)C[C@@H]1C,inactive: 0.982
